# Test results: PubChem BioAssay (Tox21)
# Inconclusive results, whose numbers are uncertain, are shown with a selection of clear calls. No potency is given beside an inconclusive call; the fits are too rough. Calls of active or inactive are those of the source. The call rests on the fitted dose curve; in most records, active means well fitted activation curve with a large enough effect in the signal ratio in the repeat runs (not every such curve was filed as active); inconclusive means weak or mixed curves, or effect the other way; inactive means flat fitted curve, though single readings scatter; the % refers to the signal ratio.
# Target: Estrogen receptor beta (Homo sapiens) (UniProt Q92731)
# UniProt Q92731, sequence (Q92731 whole entry, looked up): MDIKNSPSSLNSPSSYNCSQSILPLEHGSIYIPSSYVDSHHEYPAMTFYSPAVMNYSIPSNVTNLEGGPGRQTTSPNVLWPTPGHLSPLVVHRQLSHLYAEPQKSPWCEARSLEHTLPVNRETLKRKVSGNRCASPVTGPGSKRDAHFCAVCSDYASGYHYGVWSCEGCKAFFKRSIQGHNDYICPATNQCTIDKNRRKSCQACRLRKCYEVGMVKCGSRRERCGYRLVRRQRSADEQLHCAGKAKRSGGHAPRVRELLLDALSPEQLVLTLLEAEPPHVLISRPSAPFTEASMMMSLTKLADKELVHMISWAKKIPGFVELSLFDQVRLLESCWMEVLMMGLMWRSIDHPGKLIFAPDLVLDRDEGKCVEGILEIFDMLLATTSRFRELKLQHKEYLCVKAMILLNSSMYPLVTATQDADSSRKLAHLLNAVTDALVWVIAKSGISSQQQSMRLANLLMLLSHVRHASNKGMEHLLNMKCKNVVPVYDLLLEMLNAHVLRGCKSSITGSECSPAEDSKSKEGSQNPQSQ
# Assay: qHTS assay to identify small molecule agonists of the estrogen receptor beta (ER-beta) signaling pathway (AID 1259377)
# Conditions: ER-beta-UAS-bla HEK293T, beta-lactamase FRET ratio, 16 h; activation: at 92.4 µM (top of the series) unless noted
# Method in brief: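 Reporter cells (HEK293T, ER-beta-UAS-bla) receive compounds or DMSO after a 6 hr pre-incubation. They then incubate 16 hr at 37C/5% CO2, and fluorescence from LiveBLAzer B/G substrate is measured after 2 hours at room temperature.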
# On the % scale 0 is the no-effect control and ±100 the full control effect; potency means the concentration at half of the fitted maximal effect; tags describe the fitted curve by direction and shape or compound fluorescence and quenching.
Compound,activation,Potency
O=C1c2c(O)ccc(Nc3ccc(CCO)cc3)c2C(=O)c2c([N+](=O)[O-])ccc(O)c21,inactive: -9.4%,–
Cc1ccc(S(=O)(=O)C(I)I)cc1,–,"inconclusive [rising, full curve]"
CC(C)(C)c1csc(-c2cc3cc(OCc4ccccc4CC(=O)O)ccc3o2)n1,inactive: -4.07%,–
O=C(O)COCCN1CCN(C(c2ccccc2)c2ccc(Cl)cc2)CC1 (configuration not stated),inconclusive: 10.7%,–
CC(C)(CO)COC(=O)C(C)(C)CO,inconclusive: 8.56%,–
C1COCCN1,inconclusive: 14%,"inconclusive [activator, full curve]"
